The text below walks through data of PubChem BioAssay (NCI).

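Method: 48-hour compound exposure of cells in 96-well plates, five concentrations, linear interpolation of endpoints. GI50: concentration for 50% inhibition of growth.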

The subject of the test is NCI-H322M lung. The experiment in a line: growth of human tumour cells (NCI), 48 h.

Regarding `COC(=O)[C@@H](C)C[C@H](Cc1ccccc1)NC(=O)c1cccc([C@@H](C[C@H](C(C)C)N(C)C(=O)[C@@H](NC(=O)[C@H]2CCCCN2C)C2CC2)OC(C)=O)n1`, the GI50 is 54.5 nM.
